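Interpolation was linear, between the two tested concentrations surrounding the appropriate level; five concentrations were tested over 48 hours in 96-well plates. GI50: concentration for 50% inhibition of growth.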 Active and inactive are the calls of the source. Rule as the data show it: active = GI50 up to about 1.1 µM and inactive = higher. A value given as a limit tells only on which side of the number the result lay.

This experiment deals with NCI-H322M. Put plainly: growth of human tumour cells (NCI), 48 h.
Turning to `CC(=O)Nc1ccc(-c2nc3ccccc3s2)cc1`, the GI50 was inactive: 29.5 µM.

For the molecule `Cc1cnc2cc(Cl)ccc2c1SCC(=O)O`, the GI50 is inactive: > 100 µM.

In the case of `CC(=O)NC(CCCN(Cc1ccccc1)C(=O)N(C)N=O)C(=O)NCc1ccccc1` (configuration not stated), the GI50 was inactive: > 100 µM.

Consider `N#CCCC(CCC#N)(CCC#N)NO`, for which the GI50 is inactive: > 100 µM.

With `CC(=O)Oc1ccc2c3c1[C@H]1O[C@H]1c1cccc(c1-3)[C@@H]1O[C@H]21`, the GI50 is inactive: 14.8 µM.

For the molecule `CC[C@@]1(O)C(=O)OCc2c1cc1n(c2=O)Cc2c-1nc1ccccc1c2/C=N\NC(=O)C(N)CO` (some centres not stated), the GI50 was inactive: 9.77 µM.

Turning to `Cc1[nH]c(=O)c2oc3cc4ccccc4cc3c2c1C(=O)O`, the GI50 was inactive: > 10 µM.

In the case of `CC(C)(C)OC(=O)NC1CCCC1=O` (configuration not stated), the GI50 was inactive: > 100 µM.

As to `CCCCN(C)/N=N/c1[nH]cnc1C(N)=O`, the GI50 is inactive: > 100 µM.

For the molecule `COc1cc(S(=O)(=O)Nc2ccc(-c3csc(/N=C\c4cccc(Oc5ccccc5)c4)n3)cc2)ccc1Cl`, the GI50 is inactive: 17.8 µM.

For `COC(=O)c1ccccc1Nc1nc(-c2cccs2)nc2cc(OC)c(OC)cc12`, the GI50 is inactive: 43.3 µM.

Consider `CC1=C/C(=N\NC(N)=S)C(C(O)(C(F)(F)F)C(F)(F)F)C(C)(C)C1` (configuration not stated), for which the GI50 was inactive: > 10 µM.

`CC1=CC[C@@H]2[C@@H](CC[C@@]2(C)O)C(C)(C)[C@H]1CC[C@@H]1[C@@]2(C)CCC(=O)C(C)(C)O[C@@H]2CC[C@]1(C)O`: the GI50 is inactive: 44.4 µM.

As for `O=S1(=O)Cc2ccc3c4c2-c2c(ccc5ccc(c-4c25)CS(=O)(=O)C3)C1`, the GI50 is inactive: > 100 µM.

Take `N#CC(C#N)=C1C(=Cc2ccc(OCCCCCCCCCCSSCCCCCCCCCCOc3ccc(C=C4C(=C(C#N)C#N)c5ccccc5C4=C(C#N)C#N)cc3)cc2)C(=C(C#N)C#N)c2ccccc21`: the GI50 was inactive: 18.3 µM.

For `N#C/C(=C/NC(=S)c1ccncc1)C(N)=O`, the GI50 is inactive: > 100 µM.

Take `CO[C@]12S[C@@H]3CCCC[C@@]31C(C)(C)C(=O)N2c1ccccc1`: the GI50 is inactive: > 100 µM.

For `COc1cccc(/C=C2\C(=O)N(C(=O)Cc3ccccc3)N=C2C)c1`, the GI50 was inactive: > 100 µM.

`CCc1c(C)c(C#N)c(=S)n(C2OC(COC(C)=O)C(OC(C)=O)C(OC(C)=O)C2OC(C)=O)c1-c1ccccc1` (configuration not stated): the GI50 was inactive: > 10 µM.

`CCN(CC)c1ccc2c(c1)Oc1ccc(N(C(C)=O)c3ccccc3)cc1C21OC(=O)c2ccccc21` (configuration not stated): the GI50 was inactive: > 100 µM.

With `CCS/C(=N\c1ccccc1)SC`, the GI50 was inactive: > 100 µM.

In the case of `COc1ccc(C)cc1C1CCC(=O)O1` (configuration not stated), the GI50 was inactive: > 100 µM.

Consider `O=c1c(Cc2ccccc2)c(O)cc2n1CCC2`, for which the GI50 is inactive: > 100 µM.

As for `CC1=CC(C2/C(=N/O)C=C(C)CC2(C)C)C(O)C(C)(C)C1` (configuration not stated), the GI50 was inactive: 18 µM.

In the case of `Cc1cc(C)nc(NS(=O)(=O)c2ccc(Nc3c4ccccc4nc4c(C(=O)N5CCN(CCOS(C)(=O)=O)CC5)ccc(Cl)c34)cc2)n1`, the GI50 is inactive: > 100 µM.

Consider `CC(=O)OC12OC(C)(C3C(=O)N(c4ccccc4)C(=O)C31)N(c1ccccc1)C2=O` (configuration not stated), for which the GI50 is inactive: > 100 µM.

Take `Clc1ccc(-c2nc3cc(C45CC6CC(CC(C6)C4)C5)ccc3[nH]2)cc1`: the GI50 is inactive: 77.3 µM.

For `C=CC(C)(C)C(=C)C(=O)Nc1ccccc1I`, the GI50 is inactive: > 100 µM.

Take `CCC(c1ccc(OC)cc1)C1NC(=S)NC1=O` (configuration not stated): the GI50 was inactive: > 50 µM.

With `N#CC1(C#N)C2C=CC(C3CCC=C32)C1(C#N)C#N` (configuration not stated), the GI50 is inactive: > 10 µM.

Take `O=C(c1ccc(Cl)cc1)N1CCN=C1c1cc2ccccc2c2ccccc12`: the GI50 is inactive: 12.6 µM.

In the case of `NC(=O)N/N=C1/CCCC/C1=C\c1ccccc1`, the GI50 was inactive: > 100 µM.

Consider `CC(C)C(=O)CC(c1ccc(Br)cc1)N1N=C(C(C)C)CC1c1ccc(Br)cc1` (configuration not stated), for which the GI50 is inactive: > 100 µM.

Consider `N=c1c2ccccc2nc2oc3ccc(Cl)cc3n12`, for which the GI50 was inactive: 43.5 µM.

For the molecule `N#Cc1c(=O)c2cccnc2n2c1[nH]c1ccccc12`, the GI50 was inactive: > 100 µM.

`O=C(N/N=C/c1cc(-c2ccccc2Cl)c(-c2ccccc2Cl)o1)c1ccncc1`: the GI50 is inactive: > 100 µM.

With `CCOC(=O)C(=O)N1C(C)=C(C(=O)OCC)CC(C(=O)OCC)=C1C`, the GI50 is inactive: > 100 µM.

Consider `O=C(N/N=C1\C(=O)Nc2ccc(Br)cc21)/C(O)=C/C(=O)c1ccc(Cl)cc1`, for which the GI50 was inactive: > 100 µM.

In the case of `N#Cc1c(N2CCOCC2)ncn(-c2ccccc2)c1=O`, the GI50 is inactive: > 100 µM.

`O=[N+]([O-])c1ccccc1C1SCc2nc3ccccc3n21` (configuration not stated): the GI50 is inactive: > 100 µM.

Turning to `CCOC(=O)/C(C(=O)Nc1ccc(Cl)cc1)=C(/N)N1CCOCC1`, the GI50 is inactive: > 100 µM.

Consider `COc1cc2nc(-c3cccs3)nc(Nc3cccc(Cl)c3)c2cc1OC`, for which the GI50 is inactive: 34.2 µM.

As for `O=C(O)C1(C(O)c2ccccc2)SCCCS1` (configuration not stated), the GI50 is inactive: 9.23 µM.

Regarding `Cc1cc(O)nc(NN2C(Cl)C(=O)C2c2cccc(Cl)c2)n1` (configuration not stated), the GI50 was inactive: 29.3 µM.

Take `CC(C)CCNC(=O)c1ccc(CNC(=O)/C=C/c2ccc(OCc3ccccc3)cc2)cc1`: the GI50 is inactive: > 100 µM.

Take `CCOC(=O)c1c2c(n(-c3ccc(C)cc3)c1C)-c1ccccc1C(=O)C2(C(=O)OCC)C(=O)OCC`: the GI50 was inactive: 69.2 µM.

For the molecule `O=C(/C(=C\c1ccccc1)CN1CCOCC1)c1ccc(Br)cc1`, the GI50 was inactive: 8.17 µM.

For the molecule `COC(=O)N/N=C/c1oc(-c2ccccc2)c(-c2ccccc2)c1[N+](=O)[O-]`, the GI50 is inactive: > 100 µM.

With `COC(=O)c1ccc(NC(=O)c2cc(OC)c(OC)c(OC)c2)cc1`, the GI50 is inactive: 1.92 µM.

As for `CCOC(=O)N(CC)c1c(C(F)(F)F)cc(-c2ccccc2)[nH]c1=O`, the GI50 was inactive: 71.3 µM.

On to `COc1cc2c(cc1O)NC(=O)[C@@H]1C[C@@H](O)CN1C2=O`, for which the GI50 was inactive: > 100 µM.

With `COc1ccc([S+]([O-])Cc2cc(OC)ccc2OC)cc1` (configuration not stated), the GI50 is inactive: > 100 µM.

Take `CCCCCc1c(CCCC)c(O)nc2nc(NC(=O)CCCC)ccc12`: the GI50 was inactive: > 100 µM.

Regarding `CCOC(=O)C(=Cn1c(=S)[nH]c2ccc([N+](=O)[O-])cc21)C(=O)OCC`, the GI50 is inactive: > 100 µM.

Regarding `CC(=O)O[C@H]1C[C@]2(C)C(CCC3O[C@@]32C)[C@@]2(CC(c3ccoc3)OC2O)[C@@H]1C` (some centres not stated), the GI50 was inactive: > 100 µM.

Take `CCN(CC)CC(C)C(=O)/C=C/c1ccc(C)cc1` (configuration not stated): the GI50 was inactive: 13.1 µM.

For the molecule `CNc1cc(N)ccc1C(=O)N1CCC[C@H]1CO`, the GI50 was inactive: > 100 µM.

As to `CCC12CCCN(Cc3ccccc3)C1c1c(n(C)c3ccccc13)C(CO)C2` (configuration not stated), the GI50 is inactive: 49.3 µM.

For the molecule `Cc1c(/C=N\NC(=S)NCCNC(=S)N/N=C\c2c(C)n(C)n(-c3ccccc3)c2=O)c(=O)n(-c2ccccc2)n1C`, the GI50 was inactive: > 100 µM.

For the molecule `COC(=O)/C=C1\CCC(C)(C(=O)NS(=O)(=O)c2ccc(C)cc2)C1(C)C` (configuration not stated), the GI50 is inactive: > 100 µM.

In the case of `NC(=S)N/N=C1\C(=O)Nc2c(Cl)cc(Cl)cc21`, the GI50 is inactive: 32 µM.

Turning to `O=C1C(Cl)=C(Cl)C(=O)C2=C1C1c3ccccc3C2c2ccccc21`, the GI50 is inactive: 56.9 µM.

As to `COc1cc2cc(C(=O)N3CC(CCl)c4c3cc([N+](C)(C)Cc3ccc([N+](=O)[O-])n3C)c3ccccc43)[nH]c2c(OC)c1OC` (configuration not stated), the GI50 was inactive: 2.14 µM.

Regarding `C(CCCCc1nnc(N2CCOCC2)o1)CCCc1nnc(N2CCOCC2)o1`, the GI50 was inactive: > 100 µM.

As to `CCCN(CCC)C(=O)c1c([N+](=O)[O-])cc(C(F)(F)F)cc1[N+](=O)[O-]`, the GI50 was inactive: 61.5 µM.

As to `N=C1OC(c2c[nH]c3ccc(OCc4ccccc4)cc23)C(O)=C1O` (configuration not stated), the GI50 is inactive: > 100 µM.

In the case of `CC(C)(C)OC(=O)CN1C(=O)CC1CC(=O)c1ccccc1` (configuration not stated), the GI50 was inactive: 17.8 µM.

As for `Cc1c(C(=O)OCc2ccccc2)[n+]([O-])c2cc(F)c(F)cc2[n+]1[O-]`, the GI50 was inactive: 2.58 µM.

For `O=C1/C(=C\c2ccc(O)cc2)CCC/C1=C/c1ccc(Cl)c(Cl)c1`, the GI50 is inactive: 4.95 µM.

In the case of `CC(=O)OCC1OC(N2C(=O)/C(=N\NC(N)=S)c3ccc([N+](=O)[O-])cc32)C(OC(C)=O)C1OC(C)=O` (configuration not stated), the GI50 is inactive: 24.4 µM.

Consider `CN(C)C(=O)C1CCN(Cc2c[nH]c3ccccc23)CC1`, for which the GI50 was inactive: > 100 µM.

On to `CCOC(=O)/C(C#N)=C/Nc1c(C)n(C)n(-c2ccccc2)c1=O`, for which the GI50 was inactive: > 100 µM.

For `COc1ccc(/C=C2\Sc3nnc(CNc4ccc(Cl)cc4)n3N=C2c2cc(F)c(Cl)cc2Cl)cc1OC`, the GI50 was inactive: > 100 µM.

For the molecule `COc1c(Br)cc(CC(N)=O)c(O)c1Br`, the GI50 is inactive: > 100 µM.

In the case of `CC#CS(=O)(=O)c1ccccc1`, the GI50 was inactive: 19.9 µM.

Regarding `O=C(O)C1c2ccccc2C(C(=O)O)c2ccccc21` (configuration not stated), the GI50 was inactive: > 100 µM.

As to `COc1cccc(NC(=O)CC(=O)N2N=C(N3c4ccccc4Sc4ccccc43)CC2c2ccccc2)c1` (configuration not stated), the GI50 is inactive: > 100 µM.

For the molecule `CCCOC1OC(CS(=O)(=O)O)C(OC(C)=O)C(OC(C)=O)C1OC(C)=O` (configuration not stated), the GI50 was inactive: > 100 µM.

Take `O=[N+]([O-])/C=C/c1ccc2ccccc2c1`: the GI50 is inactive: 24.2 µM.

For `CCCCC#C[I+]c1ccccc1`, the GI50 was inactive: 16.3 µM.

Turning to `CN(C)c1ccc(/C=c2/c3ccccc3n3c2cc(NC(=O)NCCC[N+](C)(C)C)[n+]3C)cc1`, the GI50 is inactive: > 100 µM.

Consider `COc1cc(C(C)c2cc3c(cc2OCCO)OCO3)cc(OC)c1OC` (configuration not stated), for which the GI50 is inactive: 4.33 µM.

The record behind these values is ChEMBL document CHEMBL1201862, “PubChem BioAssay data set” (2004).
